Measured values reported in article PMC4336329 (PLoS ONE, 2015).
About 14,000 (4.5%) of roughly 310,000 compounds showed an effect of 50% or more. Effects have a minus sign here. Some of the results follow.

These compounds were tested against human ether-à-go-go-related gene (hERG) potassium channel (human, UniProt Q12809) (assay: primary screen, population patch clamp on CHO cells stably expressing hERG).
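Also: peak tail current of the secondary pulse compared with the same well before compound.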

Chain of human ether-à-go-go-related gene (hERG) potassium channel (Q12809 whole entry, looked up): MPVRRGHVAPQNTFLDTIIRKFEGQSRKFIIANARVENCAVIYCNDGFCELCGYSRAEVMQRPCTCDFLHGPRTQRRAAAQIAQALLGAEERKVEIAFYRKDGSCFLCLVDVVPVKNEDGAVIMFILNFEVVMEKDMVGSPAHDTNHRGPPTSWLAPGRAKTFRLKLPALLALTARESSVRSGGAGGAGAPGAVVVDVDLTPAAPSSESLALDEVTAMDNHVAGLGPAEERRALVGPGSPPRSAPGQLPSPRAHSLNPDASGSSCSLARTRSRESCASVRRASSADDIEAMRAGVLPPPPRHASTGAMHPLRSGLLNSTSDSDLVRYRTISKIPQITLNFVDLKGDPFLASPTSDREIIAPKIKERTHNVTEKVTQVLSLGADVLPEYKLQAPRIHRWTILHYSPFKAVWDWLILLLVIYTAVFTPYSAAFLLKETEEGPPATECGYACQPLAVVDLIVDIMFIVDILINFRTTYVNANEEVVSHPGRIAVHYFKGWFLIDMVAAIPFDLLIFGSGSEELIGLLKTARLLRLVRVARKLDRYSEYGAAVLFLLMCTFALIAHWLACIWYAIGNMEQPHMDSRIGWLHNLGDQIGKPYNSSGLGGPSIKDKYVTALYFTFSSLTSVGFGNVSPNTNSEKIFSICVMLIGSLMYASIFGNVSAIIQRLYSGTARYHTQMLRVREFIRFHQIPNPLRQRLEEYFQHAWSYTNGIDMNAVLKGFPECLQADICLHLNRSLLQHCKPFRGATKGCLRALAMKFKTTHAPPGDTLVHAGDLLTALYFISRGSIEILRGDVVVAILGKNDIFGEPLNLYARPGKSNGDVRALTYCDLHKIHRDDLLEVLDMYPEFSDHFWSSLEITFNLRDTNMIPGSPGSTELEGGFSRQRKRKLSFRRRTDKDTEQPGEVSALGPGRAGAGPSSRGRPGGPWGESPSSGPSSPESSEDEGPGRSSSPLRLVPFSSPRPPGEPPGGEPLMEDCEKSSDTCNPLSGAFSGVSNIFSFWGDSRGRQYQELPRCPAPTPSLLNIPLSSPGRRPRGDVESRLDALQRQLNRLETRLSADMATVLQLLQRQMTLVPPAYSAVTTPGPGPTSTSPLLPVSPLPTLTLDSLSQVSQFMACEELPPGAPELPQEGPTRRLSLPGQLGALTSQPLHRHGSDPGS

SMILES	hERG current change (%, negative = inhibition) at 10uM
CSc1ccccc1N=CC1=C(O)CC(C)(C)CC1=O	-20.7%
CC1CCN(C(=O)C(C)c2ccc([N+](=O)[O-])cc2)CC1 (centres unmarked)	-3.41%
CCOC(=O)c1c(C)c(C(=O)N2CCN(c3ccc(F)cc3)CC2)c(C)n1C	-39.2%
CC(C)c1cc(C(=O)Nc2ccc3c(c2)OCO3)no1	-2.19%
Cc1ccc(C(=O)N/C(=C\C=C\c2ccccc2)C(=O)NCc2ccco2)cc1	-50.3%
O=C1CC(N2CCN(c3ccccc3)CC2)C(=O)N1c1ccc2c(c1)OCCO2 (centres unmarked)	10.6%
CCOc1ccc2nc(NC(=O)C3CSC4(C)CCC(=O)N34)sc2c1 (centres unmarked)	-15.7%
COc1ccc(C(=O)N/N=C(\N)c2cc3ccccc3oc2=O)cc1	24.2%
O=C(Cn1c(NCCO)nc2ccccc21)NCC1CCCO1 (centres unmarked)	39.7%
CCOc1ccc(NC(=O)CCC(=O)N/N=C2\CCCc3ccccc32)cc1	2.38%
CC(=O)OCc1c(F)c(F)c(-n2nc(C)cc2C)c(F)c1F	-0.234%
Cc1cccc(C)c1NC(=O)CSc1nnc(-c2ccoc2C)n1CCc1ccccc1	-46.3%
COc1cc(NC(=S)NCCCN(C)C)c(OC)cc1NC(=O)c1ccco1	7.61%
Cn1c(=O)c2c(nc(SCC(=O)N3CCc4ccccc4C3)n2C)n(C)c1=O	-6.55%
CN(C)c1ccc(N2C(=NC(=O)CCc3ccccc3)SC3CS(=O)(=O)CC32)cc1 (centres unmarked)	-22%
CCOC(=O)c1nc(Nc2ccc(N3CCOCC3)cc2)c2ccccc2n1	8.05%
COc1ccccc1N(CC(=O)N/N=C/c1ccc(C(=O)O)cc1)S(=O)(=O)c1ccc(C)cc1	4.61%
CCOC(=O)/C(C#N)=C/c1cn(CCC(=O)O)nc1-c1ccc(Br)cc1	11.7%
O=C(Cn1c(=O)c2cccn2c2ccccc21)Nc1cc(F)ccc1F	12%
CCCNC(=O)c1cc2c(C(F)(F)F)nn(C)c2s1	10.5%
O=C(c1ccco1)N(Cc1ccc([N+](=O)[O-])cc1)c1ccc(Cl)cc1	-36.5%
O=C(O)c1ccc(CNC(=O)c2ccc(Br)o2)cc1	-5.15%
C=CCN1CCN(c2ccncc2S(=O)(=O)N2CCOCC2)CC1	-13%

SMILES	hERG current change (%, negative = inhibition) at 10uM
COc1ccc(-c2cnc(OC(C)(C)C)nc2OC(C)(C)C)cc1OC	11%
Cc1ccc(S(=O)(=O)N2CCc3ccccc3C2)cc1	13%
Cc1[nH]c2ccc(C(=O)OC(C)C(=O)NCc3ccccc3)cc2c1C (centres unmarked)	-10.1%
O=C(N/N=C/c1cccc([N+](=O)[O-])c1)C1COc2ccccc2O1 (centres unmarked)	-29.1%
CC(C)CC(=O)N1CCN(Cc2ccccc2Br)CC1	-5.99%
O=C(c1ccccc1)N1CCC(=O)N(C(CO)Cc2ccccc2)CC1 (centres unmarked)	-9.39%
CCC(=O)c1ccccc1OCCCN1CCC(Cc2ccccc2)CC1.O=C(O)C(=O)O	-78.5%
COc1ccc(S(=O)(=O)NCC2CCCN(Cc3ccccc3C)C2)cc1 (centres unmarked)	-12.3%
CC1CCCN(c2nc3c(c(=O)[nH]c(=O)n3C)n2CCCc2ccccc2)C1 (centres unmarked)	-48.5%
Cc1cc(SCc2cccc([N+](=O)[O-])c2)nc(=O)[nH]1	11.4%
COc1ccccc1CN(Cc1cc2cc3c(cc2[nH]c1=O)OCCO3)Cc1nnnn1Cc1ccco1	7.49%
O=C(CCCc1c[nH]c2ccccc12)NCc1cccs1	40.5%
O=C(CSc1nc(-c2ccco2)cc(C(F)(F)F)n1)NCCc1ccccc1	-0.684%
O=C(Nc1nc2c(Br)cccc2s1)C1CC1	-17.9%
COCCCn1c(=O)c2sccc2n2c(CCCC(=O)NCc3ccc(F)cc3)nnc12	-41.6%
CCCN(CC(=O)Nc1ccc(F)c(F)c1F)Cc1cc(=O)n2ccsc2n1	-25.4%
O=C(O)CCCCCNC(=O)c1ccncc1	-3.45%
CSc1sc(C(=O)NNC(=O)c2ccc(Cl)cc2)c2c1C=CCC2	1.18%
[O-][N+]1=C(c2cccs2)CN(O)C1	8.57%
CC1=C(C(=O)Nc2ccc(C)cc2C)C(c2cccc(Cl)c2)n2nc(C(=O)OC(C)C)nc2N1 (centres unmarked)	-3.86%
C=CCOc1ccc(S(C)(=O)=O)cc1	-3.44%
CCn1c(CCC(N)=O)nnc1SCC(=O)Nc1cccc(S(=O)(=O)N2CCCC2)c1	-4.93%
Cc1cc(C)c(S(=O)(=O)c2ccccc2)c(N2CCOCC2)n1	7.75%

SMILES	hERG current change (%, negative = inhibition) at 10uM
CCC(C)NCC(=O)Nc1sc2c(c1C(N)=O)CCC2 (centres unmarked)	-10.8%
COc1ccc(CN(C(=O)Cc2cccs2)C(C(=O)NC2CCCC2)c2ccncc2)cc1 (centres unmarked)	-13.8%
O=C(Nc1ccc(F)c([N+](=O)[O-])c1)c1cccs1	-7.69%
Cc1ccccc1-c1nc(CN2CCCC(C(=O)NCCCN3CCOCC3)C2)c(C)o1 (centres unmarked)	-7.84%
CCOc1ccc(NC(=S)N2CCC(NC(=O)c3ccccc3C)CC2)cc1	-1.63%
Cc1ccc(CN(Cc2ccco2)C(=S)NCC(=O)NCc2cccnc2)cc1	-14.4%
CCCCn1cnc2c(cnn2-c2ccc(Cl)cc2)c1=O	-0.569%
Cc1ccc(NC(=O)c2cccc(N3C(=O)C4C5C=CC(C5)C4C3=O)c2)cc1C (centres unmarked)	-7.07%
CCOC(=O)CN1C(=O)C(C)(C)Oc2ccc(C(=O)Nc3ccccc3)cc21	0.256%
COCC(=O)Nc1nnc(COc2ccc(Cl)cc2)s1	-0.556%
O=C(Cn1cc(C(=O)c2ccco2)c2ccccc21)NC1CCCC1	-2.49%
CCCN(CCC)C(=O)c1cn(C)c2ccc(S(=O)(=O)N3CCCC3)cc2c1=O	5.93%
O=C(NCCC1CCCCN1S(=O)(=O)c1ccc(F)cc1)C(=O)NCC1CCCO1 (centres unmarked)	-38.8%
CC(=O)N1CCN(C(=O)c2ccc(Cl)c(NC(=O)c3cccs3)c2)CC1	-15.3%
CCc1ccc(CN2CCCC(C(=O)c3sccc3C)C2)o1 (centres unmarked)	2.99%
Cc1ccc(-n2ncc3c2CCCC3NC(=O)CCc2c(C)noc2C)cc1C (centres unmarked)	-8.07%
O=C(NC1CCCC1)c1cnn2c(C(F)(F)F)cc(-c3ccc4c(c3)OCO4)nc12	-1.76%
O=C(NC1CCS(=O)(=O)C1)C12CC3CC(CC(C3)C1)C2 (centres unmarked)	0.374%
CCS(=O)(=O)N1CCC(C(=O)NC2CCCCC2)CC1	7.43%
CCOC(=O)C1CCN(Cc2ccc(F)c(Br)c2)CC1	-8.18%
O=C(CCCc1nc2ccccc2s1)NNC(=O)CCN1CCN(Cc2ccccc2)CC1	-39.2%
N/C(Cc1cccs1)=N\OC(=O)COc1ccccc1Cl	2.85%
O=C(O)C1CC=CCC1C(=O)NCCCN1CCCC1=O (centres unmarked)	10.1%

SMILES	hERG current change (%, negative = inhibition) at 10uM
COc1ccccc1NC(=O)C(C(C)C)N1C(=O)c2ccccc2C1=O (centres unmarked)	17.4%
CN1CC(=O)N(CC(=O)NCCc2ccc(F)cc2)c2ccccc2C1=O	-4.64%
CCCCCn1c(=O)[nH]c2cc(C(=O)NC3CCN(Cc4ccccc4)CC3)ccc2c1=O	15.6%
CCOC(=O)c1c(NC(N)=O)sc(C)c1C	0.795%
CCOC(=O)C1=C(C)C2C3C(=O)N(c4ccc(C)cc4C)C(=O)C3C1(C)C1C(=O)N(c3ccc(C)cc3C)C(=O)C21 (centres unmarked)	0.443%
COc1ccc2[nH]cc(CCNS(=O)(=O)c3ccc(C)cc3)c2c1	-38.1%
CCOc1ccccc1N(CC(=O)NCCSc1ccccn1)S(=O)(=O)c1ccc(C)cc1	-27.8%
Cc1cc(-c2n[nH]c(=S)n2/N=C/C=C/c2ccco2)n[nH]1	10.7%
CC/C(=N\NC(=O)OC)c1ccc(OC(F)F)cc1	22%
C/C(=N\NC(=O)c1nc2ccccn2c1C)c1ccc2c(c1)OCO2	-18.5%
CCN1CCN(C(c2nnnn2Cc2ccc3c(c2)OCO3)C(C)C)CC1.Cl (centres unmarked)	-41.6%
COc1ccc(-c2nc3cc(C)ccn3c2NCc2ccc3c(c2)OCO3)cc1	-67.5%
CC(=O)NC1=NC(=O)/C(=C/N2CCOCC2)S1	6.49%
Cn1cccc1C(=O)NCC1CCCCC1	14.1%
Cc1cc(/C=c2/sc3nc4ccccc4n3c2=O)c(C)n1-c1ccccn1	4.27%
Cc1cc(NC(=O)Cn2nc(C)c([N+](=O)[O-])c2C)no1	2.93%
COc1cccc(-n2c(SC3CCOC3=O)nc3ccccc3c2=O)c1 (centres unmarked)	-12.1%
C=C(C)CSc1nnc([C@@H](N)Cc2ccccc2)o1.Cl	9.85%
COc1ccc(-n2cnc3c(sc4nc(N5CCOCC5)c5c(c43)CCCC5)c2=O)cc1	21.3%
O=C(OCc1ccccc1Cl)c1cccnc1Cl	-14.4%
